Results reported in article PMC9992711, “Two-step structural changes in M3 muscarinic receptor activation rely on the coupled Gq protein cycle” (Nature Communications, 2023).
Results are given in words; binding and its absence hold for the method and conditions named. Binding seen in cells or lysates may run through a third protein. Some results given as binding are weak or reduced against the parent protein; the word gives no strength. For some of these results: Sequences can lack the tags named with a protein. Values belong to the molecule of their own block, whether it stands above or below them.

Amino acid sequences for entries named in this document (tags omitted). A change or cut given only in a name is not applied to a line headed by its entry.
UniProt P21279: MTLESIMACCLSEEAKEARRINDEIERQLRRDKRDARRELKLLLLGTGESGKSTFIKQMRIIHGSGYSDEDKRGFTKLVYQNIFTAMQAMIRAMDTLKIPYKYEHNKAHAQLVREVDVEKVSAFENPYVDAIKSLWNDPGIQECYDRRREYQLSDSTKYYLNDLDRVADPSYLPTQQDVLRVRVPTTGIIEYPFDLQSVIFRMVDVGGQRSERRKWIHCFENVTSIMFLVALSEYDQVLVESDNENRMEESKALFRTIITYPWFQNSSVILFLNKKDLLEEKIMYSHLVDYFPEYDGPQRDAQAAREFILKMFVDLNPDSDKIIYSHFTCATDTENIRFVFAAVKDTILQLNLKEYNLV

Assays:
[1] = target: hM3R(3A)-EYFP (human) (UniProt P20309); test: FRET or BRET; CFP/YFP photometry on single live HEK293T (tsA-201) cells; labelled pair with the remaining cognate G protein subunits co-transfected (GRK2 too for Gαq-CFP with Gβ1-YFP; only the two probes for hM3R-CFP with YFP-PLCβ1); 10 μM Oxo-M applied and washed out
[2] = target: hM3R-EYFP (human) (UniProt P20309); test: as above
[3] = target: mouse Gαq-ECFP (mouse) (UniProt P21279); test: FRET or BRET; as a3, in the presence of YM-254890 (inhibitor of GDP release from Gαq); 10 μM Oxo-M applied
[4] = target: mouse Gαq-ECFP (mouse) (UniProt P21279); test: FRET or BRET; CFP/YFP photometry on single live HEK293T (tsA-201) cells; labelled pair with the remaining cognate G protein subunits co-transfected (GRK2 too for Gαq-CFP with Gβ1-YFP; only the two probes for hM3R-CFP with YFP-PLCβ1); 10 μM Oxo-M applied and washed out
[5] = target: hM3R-Cerulean (human) (UniProt P20309); test: as above

binding [1]: no binding
binding [2]: binds
Molecule: mouse Gαq-ECFP (from UniProt P21279 1-359)

binding [1]: no binding
binding [2]: binds
Molecule: Gαq(Q209L)-ECFP (from UniProt P21279 1-359)

binding [3]: no binding (condition: with YM-254890)
binding [4]: binds
binding [5]: binds
B1: rat EYFP-PLCβ1 (enzyme, UniProt P10687 1-1216)
chain: MAGAQPGVHALQLKPVCVSDSLKKGTKFVKWDDDSTIVTPIILRTDPQGFFFYWTDQNKETELLDLSLVKDARCGKHAKAPKDPKLRELLDVGNIGHLEQRMITVVYGPDLVNISHLNLVAFQEEVAKEWTNEVFSLATNLLAQNMSRDAFLEKAYTKLKLQVTPEGRIPLKNIYRLFSADRKRVETALEACSLPSSRNDSIPQEDFTPDVYRVFLNNLCPRPEIDNIFSEFGAKSKPYLTVDQMMDFINLKQRDPRLNEILYPPLKQEQVQVLIEKYEPNSSLAKKGQMSVDGFMRYLSGEENGVVSPEKLDLNEDMSQPLSHYFINSSHNTYLTAGQLAGNSSVEMYRQVLLSGCRCVELDCWKGRTAEEEPVITHGFTMTTEISFKEVIEAIAECAFKTSPFPILLSFENHVDSPKQQAKMAEYCRLIFGDALLMEPLEKYPLESGVPLPSPMDLMYKILVKNKKKSHKSSEGSGKKKLSEQASNTYSDSSSVFEPSSPGAGEADTESDDDDDDDDCKKSSMDEGTAGSEAMATEEMSNLVNYIQPVKFESFETSKKRNKSFEMSSFVETKGLEQLTKSPVEFVEYNKMQLSRIYPKGTRVDSSNYMPQLFWNAGCQMVALNFQTVDLAMQINMGMYEYNGKSGYRLKPEFMRRPDKHFDPFTEGIVDGIVANTLSVKIISGQFLSDKKVGTYVEVDMFGLPVDTRRKAFKTKTSQGNAVNPVWEEEPIVFKKVVLPSLACLRIAAYEEGGKFIGHRILPVQAIRPGYHYICLRNERNQPLMLPAVFVYIEVKDYVPDTYADVIEALSNPIRYVNLMEQRAKQLAALTLEDEEEVKKEADPGETSSEAPSETRTTPAENGVNHTATLAPKPPSQAPHSQPAPGSVKAPAKTEDLIQSVLTEVEAQTIEELKQQKSFVKLQKKHYKEMKDLVKRHHKKTTELIKEHTTKYNEIQNDYLRRRAALEKSAKKDSKKKSEPSSPDHGSSAIEQDLAALDAEMTQKLIDLKDKQQQQLLNLRQEQYYSEKYQKREHIKLLIQKLTDVAEECQNNQLKKLKEICEKEKKELKKKMDKKRQEKITEAKSKDKSQMEEEKTEMIRSYIQEVVQYIKRLEEAQSKRQEKLVEKHKEIRQQILDEKPKLQMELEQEYQDKFKRLPLEILEFVQEAMKGKVSEDSNHGSAPPSLASDPAKVNLKSPSSEEVQGENAGREFDTPL
